Some of the results follow. The list includes weakly bound sequences.
target: T1, MBP-FoxP3dN (UniProt Q99JB6); assay: PD-seq (MBP pull-down with sequencing); settings: 20 mM Tris-HCl pH 7.5, 100 mM NaCl, 1.5 mM MgCl2, 0.4 uM protein, 0.1 uM dsDNA library, 30 min, room temperature, amylose pull-down; high values mean tight binding; double strand, one strand shown
T1 sequence: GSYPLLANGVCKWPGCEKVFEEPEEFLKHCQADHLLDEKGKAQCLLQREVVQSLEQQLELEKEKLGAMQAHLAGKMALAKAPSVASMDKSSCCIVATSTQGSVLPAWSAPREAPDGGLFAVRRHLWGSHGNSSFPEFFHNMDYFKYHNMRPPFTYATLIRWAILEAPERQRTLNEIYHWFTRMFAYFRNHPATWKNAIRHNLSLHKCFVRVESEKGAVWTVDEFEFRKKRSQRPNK

Sequence	binding signal (RPM ratio (pull-down/input))
GATGATTGTTCTCCCAGCTGATGAATTAAAAATTTCGAGTAAACAAATTTTCCTAATCTTTCTGTTCAAGCGCCATCTAC	0.202
GATGATTGTTCTCCCAGCTGATGAATTCAGTTCTTCGAGTAAACAAATTTTCCTAATCTTTCTGTTCAAGCGCCATCTAC	0.839
GATGATTGTTCTCCCAGCTGATGAATTGGTTCATTCGAGTAAACAAATTTTCCTAATCTTTCTGTTCAAGCGCCATCTAC	0.38
GATGATTGTTCTCCCAGCTGATGAATTTGGAAGTTCGAGTAAACAAATTTTCCTAATCTTTCTGTTCAAGCGCCATCTAC	0.344
GATGATTGTTCTCCCAGCTGATGAATTGGGGGTTTCGAGTAAACAAATTTTCCTAATCTTTCTGTTCAAGCGCCATCTAC	0.812
GATGATTGTTCTCCCAGCTGATGAATTATACAATTCGAGTAAACAAATTTTCCTAATCTTTCTGTTCAAGCGCCATCTAC	0.854
GATGATTGTTCTCCCAGCTGATGAATTAGGAAGATCGAGTAAACAAATTTTCCTAATCTTTCTGTTCAAGCGCCATCTAC	0.181
GATGATTGTTCTCCCAGCTGATGAATTGAGACTTTCGAGTAAACAAATTTTCCTAATCTTTCTGTTCAAGCGCCATCTAC	1.22
GATGATTGTTCTCCCAGCTGATGAATTCAAAAAGTCGAGTAAACAAATTTTCCTAATCTTTCTGTTCAAGCGCCATCTAC	0.151
GATGATTGTTCTCCCAGCTGATGAATTTAACGACTCGAGTAAACAAATTTTCCTAATCTTTCTGTTCAAGCGCCATCTAC	0.447
GATGATTGTTCTCCCAGCTGATGAATTGGTGTGCTCGAGTAAACAAATTTTCCTAATCTTTCTGTTCAAGCGCCATCTAC	1.34
GATGATTGTTCTCCCAGCTGATGAATTTGTATAGTCGAGTAAACAAATTTTCCTAATCTTTCTGTTCAAGCGCCATCTAC	5.26
GATGATTGTTCTCCCAGCTGATGAATTCGGCAGTTCGAGTAAACAAATTTTCCTAATCTTTCTGTTCAAGCGCCATCTAC	0.883
GATGATTGTTCTCCCAGCTGATGAATTAGTAGCGTCGAGTAAACAAATTTTCCTAATCTTTCTGTTCAAGCGCCATCTAC	1.42
GATGATTGTTCTCCCAGCTGATGAATTAGAATTGTCGAGTAAACAAATTTTCCTAATCTTTCTGTTCAAGCGCCATCTAC	0.707
GATGATTGTTCTCCCAGCTGATGAATTTGACATTTCGAGTAAACAAATTTTCCTAATCTTTCTGTTCAAGCGCCATCTAC	1.58

Sequence	binding signal (RPM ratio (pull-down/input))
GATGATTGTTCTCCCAGCTGATGAATTACCTGTGTCGAGTAAACAAATTTTCCTAATCTTTCTGTTCAAGCGCCATCTAC	0.458
GATGATTGTTCTCCCAGCTGATGAATTCGGGCACTCGAGTAAACAAATTTTCCTAATCTTTCTGTTCAAGCGCCATCTAC	0.406
GATGATTGTTCTCCCAGCTGATGAATTCGCCCGGTCGAGTAAACAAATTTTCCTAATCTTTCTGTTCAAGCGCCATCTAC	0.207
GATGATTGTTCTCCCAGCTGATGAATTGGACCCCTCGAGTAAACAAATTTTCCTAATCTTTCTGTTCAAGCGCCATCTAC	0.269
GATGATTGTTCTCCCAGCTGATGAATTCGGTGCGTCGAGTAAACAAATTTTCCTAATCTTTCTGTTCAAGCGCCATCTAC	1.02
GATGATTGTTCTCCCAGCTGATGAATTTAGGGCCTCGAGTAAACAAATTTTCCTAATCTTTCTGTTCAAGCGCCATCTAC	0.562
GATGATTGTTCTCCCAGCTGATGAATTTCTACGATCGAGTAAACAAATTTTCCTAATCTTTCTGTTCAAGCGCCATCTAC	0.215
GATGATTGTTCTCCCAGCTGATGAATTATTGGCATCGAGTAAACAAATTTTCCTAATCTTTCTGTTCAAGCGCCATCTAC	1.27
GATGATTGTTCTCCCAGCTGATGAATTATAGGATTCGAGTAAACAAATTTTCCTAATCTTTCTGTTCAAGCGCCATCTAC	0.361
GATGATTGTTCTCCCAGCTGATGAATTGCAAATATCGAGTAAACAAATTTTCCTAATCTTTCTGTTCAAGCGCCATCTAC	1.17
GATGATTGTTCTCCCAGCTGATGAATTGGATAGCTCGAGTAAACAAATTTTCCTAATCTTTCTGTTCAAGCGCCATCTAC	0.419
GATGATTGTTCTCCCAGCTGATGAATTCGAGCCTTCGAGTAAACAAATTTTCCTAATCTTTCTGTTCAAGCGCCATCTAC	1.57
GATGATTGTTCTCCCAGCTGATGAATTCGCTCGGTCGAGTAAACAAATTTTCCTAATCTTTCTGTTCAAGCGCCATCTAC	0.208
GATGATTGTTCTCCCAGCTGATGAATTGAGTTATTCGAGTAAACAAATTTTCCTAATCTTTCTGTTCAAGCGCCATCTAC	2.48
GATGATTGTTCTCCCAGCTGATGAATTTAGAACCTCGAGTAAACAAATTTTCCTAATCTTTCTGTTCAAGCGCCATCTAC	0.436

From PMC12820563
